Measurements reported in the RNAGym collection of RNA variant scans (doi:10.7554/elife.90254).
Read counts are not given, so values of variants with three or more changes are uncertain.

B1: LINE1-mini (parent)
chain: GGCAGAGCUCAACACAGCGUGGCAAAGUGGCUGUGGCUAGACUGCC

Variants of: B1
Assay: self-cleavage, relative activity (ratio to wild type); higher = more cleavage; in vitro, sequencing; the parent is a self-cleaving ribozyme
In the case of C3U A12G G19A, the self-cleavage is reported as 0. C3U A25C G30U G44C gave a self-cleavage of 0.09. C3G U20A G40U showed a self-cleavage of 0.07. In the case of C3U C13U C15A A41G C46U, the self-cleavage is reported as 0.02. In the case of C3U C13U G44C, the self-cleavage is reported as 0.08. Work on C3U C10A A11U U38A yielded a self-cleavage of 0. With C3U C13A U20C G35U the self-cleavage was 0.32. Variant C3U A4G C13G has a self-cleavage of 0.1. Work on C3G U34G C37G A41U yielded a self-cleavage of 0.05. For C3U C15A G44C, the self-cleavage was 0.11. In the case of C3U A16U C18U G19A U20A G22A A26C, the self-cleavage is reported as 0.03. In the case of C3U A12C A16C G19A, the self-cleavage is reported as 0.02. For C3U A14C G35C, the self-cleavage was 0.47. Variant C3U A11U G44C has a self-cleavage of 0.02. For C3U C10U C18U, the self-cleavage was 0.1. For C3U C8U G17C, the self-cleavage was 0.29. C3U A11G A12G G19C U20A A41U showed a self-cleavage of 0.01. With C3U C10A U38C the self-cleavage was 0.28. Work on C3U C10A C23U G35C yielded a self-cleavage of 0.04. With C3U A6G C18U U34A the self-cleavage was 0.06. C3U C10G A16G U38A gave a self-cleavage of 0.01. C3U C15A C31A A41U C42A gave a self-cleavage of 0.17. In the case of C3U C10A C31U G40C, the self-cleavage is reported as 0. C3U C18G C42A gave a self-cleavage of 0.1. With C3U C18G C42U the self-cleavage was 0.04. Variant C3U A24C A41G has a self-cleavage of 0.15. Work on C3U A14C A24U G33U yielded a self-cleavage of 0.11. Work on C3U A4C G29U G44A yielded a self-cleavage of 0.02. Work on C3U A6G C15A C23A C46G yielded a self-cleavage of 0.17. In the case of C3U C8U A14U G21A A26C, the self-cleavage is reported as 0.25. With C3U A11G A16G C42G the self-cleavage was 0. Variant C3U C18A G22C U28G has a self-cleavage of 0.26. In the case of C3U A4C A11U A25C, the self-cleavage is reported as 0.06. For C3U A14U C42A, the self-cleavage was 0.07. For C3U C15A G22C A39U, the self-cleavage was 0.08. With C3U C8A A12U U32A the self-cleavage was 0.01. In the case of C3U A11G U20A A25U C31U, the self-cleavage is reported as 0.01. With C3U C13U C31G C46A the self-cleavage was 0.06. C3U C8G U28A G30A U34G C46U gave a self-cleavage of 0.04. With C3U A6G G7C G17U C23A C31G the self-cleavage was 0.01. C3U C10A A24G G27A gave a self-cleavage of 0.02. Work on C3U C10A U34G yielded a self-cleavage of 0.03. C3U A6C C8U C23G A24C U28A C31U C37U A41C gave a self-cleavage of 0.01. In the case of C3U A14C G19U U20G U32A G40A, the self-cleavage is reported as 0.13. C3U C10G G29C showed a self-cleavage of 0.04. In the case of C3U A4C C10A A14G G22A A39U C42A, the self-cleavage is reported as 0.03. Work on C3U A26U G30C yielded a self-cleavage of 0.2. C3G U9G G19A G27C C45U gave a self-cleavage of 0.66. Variant C3G U20A C23U G33C G36U U43C has a self-cleavage of 0.04. For C3U C8A C18A A25U, the self-cleavage was 0.2. In the case of C3U C23A G36A C42U, the self-cleavage is reported as 0.11. With C3U C8U U20C A25G G40U C46U the self-cleavage was 0.03. With C3G U20G G33C G35A the self-cleavage was 0.1. Work on C3U A4C G27C U43C C46A yielded a self-cleavage of 0.07. Work on C3U A4C C15A C23A A26U U38A yielded a self-cleavage of 0.03. Variant C3U A25C C37G G44U has a self-cleavage of 0.08. C3U C13A G17A A26C gave a self-cleavage of 0.05. Work on C3G U20G G21U C46U yielded a self-cleavage of 0.77. C3U C15G A24G C31G showed a self-cleavage of 0.06. C3U C18A G22U G29C G35U gave a self-cleavage of 0.55. C3U A11C A41C showed a self-cleavage of 0.01. Work on C3U C15A G35U C42U yielded a self-cleavage of 0.11. In the case of C3U C10A G17A C37A, the self-cleavage is reported as 0.01. With C3U C13G C31G the self-cleavage was 0.1. C3G U28A U32C gave a self-cleavage of 0.19. C3G U9G A41G gave a self-cleavage of 0.09. C3U C10A G29U C31A gave a self-cleavage of 0.04. For C3G U9C U20G A24C A39U G40U, the self-cleavage was 0.01. Work on C3G U9G C18G U32A yielded a self-cleavage of 0.03. For C3U A12U U32C U34G, the self-cleavage was 0. Work on C3G U9G U32A C45A yielded a self-cleavage of 0. Variant C3U C15A G35A U38C has a self-cleavage of 0.01. For C3U A16C G36A, the self-cleavage was 0.04. Variant C3U C13G C23U G27U has a self-cleavage of 0.11. Variant C3U C18A A26G has a self-cleavage of 0.07. With C3U A6C G17U the self-cleavage was 0.12. C3U C13G A25U U38G showed a self-cleavage of 0. With C3U C15G G22A G27C U38G the self-cleavage was 0.02. For C3U C8G U32C G35C, the self-cleavage was 0.02. C3U C15G U20C G36C showed a self-cleavage of 0.09. In the case of C3U C18G G33A C37U, the self-cleavage is reported as 0.13. With C3U A6G U20C C37G C45U the self-cleavage was 0.03. Work on C3U C13U G40C yielded a self-cleavage of 0.28. With C3U A16U A25C A26U the self-cleavage was 0.04. C3U A24U G30C gave a self-cleavage of 0.18. Variant C3U A24C C42G C45G has a self-cleavage of 0.05. C3U C18A A25C U32A C37G U43A gave a self-cleavage of 0.01. In the case of C3U A6U C46U, the self-cleavage is reported as 0.2. In the case of C3G U32C G33U C46A, the self-cleavage is reported as 0.2. For C3U A12U C23A, the self-cleavage was 0.12. Variant C3U A11C G21C G22A G33U U43A G44A has a self-cleavage of 0.01. In the case of C3U A4C C13U U28C, the self-cleavage is reported as 0.1. With C3U C15U C45G the self-cleavage was 0.09. C3U A14C G17A C18G G22U gave a self-cleavage of 0.03. In the case of C3U A4C C18G G29U G36U C37A, the self-cleavage is reported as 1.41. In the case of C3U C10G G30A C31U G40C C45U, the self-cleavage is reported as 0.01. C3U A6C G19C gave a self-cleavage of 0.09. C3U A4U G5U A14U C15G gave a self-cleavage of 0.09. With C3U A4G C8G C23U the self-cleavage was 0.06. With C3U A14U G30A G33C the self-cleavage was 0.07. With C3U A6C C10U the self-cleavage was 0.19. With C3U C18A A26G C42G G44A the self-cleavage was 0.03. C3U C8A C37A C46A gave a self-cleavage of 1.46. For C3U C15A G17C C31U A39G A41U, the self-cleavage was 0.02. For C3U A11G C13A A16G G17U G22A C23G U28G, the self-cleavage was 0.01. Variant C3U A25U G35A A41C has a self-cleavage of 0.03. C3U A6C C45G showed a self-cleavage of 0.11. C3U C10A A26U G35C showed a self-cleavage of 0.02. Work on C3U C13A G21A G40U yielded a self-cleavage of 0.72. Variant C3U C13A U34C has a self-cleavage of 0.06. Variant C3G U9G G22U U34G has a self-cleavage of 0.14. In the case of C3U C23G A26U, the self-cleavage is reported as 0.22. C3U A6U C23G G35U A39U showed a self-cleavage of 0.16. With C3U A4U C23U A24G G30A the self-cleavage was 0.57. C3U A26U G35U gave a self-cleavage of 0.17. For C3U C10A C18G U32A, the self-cleavage was 0.01. Work on C3G U34G U38C G44A C46U yielded a self-cleavage of 0.01. For C3U C8G G17C, the self-cleavage was 0.03. Variant C3U A11C A12U A14G G33A has a self-cleavage of 0.01. C3G U20G G22U G36A G40A C42U C45A showed a self-cleavage of 0.03. For C3G U9G A39G, the self-cleavage was 0.19. C3U A6C A16C G27C G36U G40A showed a self-cleavage of 0.09. C3U A14C A16G gave a self-cleavage of 0.09. Work on C3U C10G C15G G30U G35U yielded a self-cleavage of 0.02. C3U A14U A25G A41C C45U gave a self-cleavage of 0.07. C3G U28A U34G gave a self-cleavage of 0.04. With C3U C10G G22A C23G the self-cleavage was 0.02. Variant C3U C23A G44C C46G has a self-cleavage of 0.16. For C3U A4C A25C G30C, the self-cleavage was 0.05. Variant C3U A16C G44U has a self-cleavage of 0.04. In the case of C3G U28G U32G G35C, the self-cleavage is reported as 0.01. C3U C8U U9A gave a self-cleavage of 0.69. C3U C15G C31U U38C showed a self-cleavage of 0.03. C3G U9G G44A showed a self-cleavage of 0.16. C3U A26G C42U C45U showed a self-cleavage of 0.07. C3U C8G G19C U20A gave a self-cleavage of 0.18. Work on C3U A11C C13U G40C yielded a self-cleavage of 0.02. Work on C3U A11G G22A yielded a self-cleavage of 0.01. Work on C3U C10G A14C C15A yielded a self-cleavage of 0.02. In the case of C3U C10A A14C A16U A24C, the self-cleavage is reported as 0.02. With C3U A4U G5A C10G A11G G19U G30U C37U A39C the self-cleavage was 0.02. C3U A4U C10U G44U showed a self-cleavage of 0.04. C3U A11G G22A C46G gave a self-cleavage of 0.02. With C3U A4U U9G G27A C46A the self-cleavage was 0.12. Work on C3U A11U U38C yielded a self-cleavage of 0.17. With C3U A12C C46U the self-cleavage was 0.01. Work on C3U C10A A14C G19C A26C G29C yielded a self-cleavage of 0.02. C3U A4U G7U C15G G17A G30A showed a self-cleavage of 0.03. In the case of C3U C10U U20A C23A G40C C46A, the self-cleavage is reported as 0.01. In the case of C3U A24U A25G, the self-cleavage is reported as 1.91. With C3U C15U A16U U32G the self-cleavage was 0.09. C3U A4C C10U A16G U32C A41G showed a self-cleavage of 0.1. Variant C3U C8U C15U G30A has a self-cleavage of 1.1. C3U A6U A39G gave a self-cleavage of 0.05. For C3U C13A G35A G36U, the self-cleavage was 0.17. Variant C3U A4G A11U G19U U34A has a self-cleavage of 0.02. With C3U C15A G27U U28A G29U the self-cleavage was 0.19. For C3U A11U U34A C46A, the self-cleavage was 0.03. Work on C3U A4U U20C yielded a self-cleavage of 0.1. Variant C3U C10U C13G C31U G40U has a self-cleavage of 0.01. C3U C13G A14G C23G C42U showed a self-cleavage of 0.06. Variant C3U C13G A25C has a self-cleavage of 0.03. For C3U A11G U20G, the self-cleavage was 0.02. C3U A6U G19U showed a self-cleavage of 0.19. Work on C3G U28G G29U yielded a self-cleavage of 0.27. For C3U C23A A26C, the self-cleavage was 1.11. C3U A6C C8U G21U G33U gave a self-cleavage of 0.07.
